Measured values reported in the supplement of paper PMC8285479.
Where a name gives a salt, the structure may show the parent alone. ± gives the standard deviation of the averaged measurements. In all, about 1,900 compounds were measured (“normalised cell viability (NPI; 0 = phenylarsine oxide control, 1 = DMSO control)”: median about 1, lowest 2% from about 0.039 on). The list shows a part of the results.

Test system: NCI-H1944
Test: normalised cell viability (NPI; 0 = phenylarsine oxide control, 1 = DMSO control) (fraction of DMSO control); NCI-H1944 is a non-small cell lung cancer line; higher = more viable cells (less compound toxicity)
Conditions: 6 days
[1] = glucocorticoid arm: hydrocortisone 2.75 uM co-treatment, compound 1 µM
[2] = glucocorticoid arm: hydrocortisone 2.75 uM co-treatment, compound 5 µM
[3] = glucocorticoid arm: hydrocortisone 2.75 uM pre-treated 2 days and continued, compound 1 µM
[4] = glucocorticoid arm: hydrocortisone 2.75 uM pre-treated 2 days and continued, compound 5 µM
[5] = glucocorticoid arm: vehicle, compound 1 µM
[6] = glucocorticoid arm: vehicle, compound 5 µM
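Note: CTB read-out in 384-well plates, mean of triplicate wells, normalised per plate against 1 µM phenylarsine oxide and 0.1% DMSO, compounds added 24 h after seeding.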

Structure (SMILES) | normalised cell viability [1] | normalised cell viability [2] | normalised cell viability [3] | normalised cell viability [4] | normalised cell viability [5] | normalised cell viability [6]
C[C@@H]1COC(Nc2ccc3ncnc(Nc4ccc(OCc5nccs5)c(Cl)c4)c3c2)=N1 | 0.988 ± 0.028 | 0.981 ± 0.022 | 0.9923 ± 0.005 | 0.998 ± 0.03 | 0.929 ± 0.014 | 0.886 ± 0.025
Oc1cccc(-c2nc(N3CCOCC3)c3oc4ncccc4c3n2)c1 | 1.01 ± 0.015 | 1.04 ± 0.021 | 0.997 ± 0.025 | 1.01 ± 0.02 | 1.01 | 1.02 ± 0.026
C#CCn1c(=O)c2c(ncn2C)n(C)c1=O [3,7-Dimethyl-1-propargylxanthine] | 0.987 ± 0.013 | 0.98 ± 0.0087 | 0.991 ± 0.0017 | 0.96 ± 0.033 | 0.9793 ± 0.0031 | 0.985 ± 0.0056
CC(N)(Cc1ccc(O)c(O)c1)C(=O)O (racemic) [(±)-3-(3,4-dihydroxyphenyl)-2-methyl-DL-alanine] | 1.01 | 1.01 ± 0.068 | 1.01 ± 0.017 | 0.99 ± 0.018 | 1.023 ± 0.0058 | 0.986 ± 0.06
CN(C)CCC(c1ccc(Br)cc1)c1ccccn1 (single isomer, unassigned; (+)) [(+)-Brompheniramine maleate] | 1.01 ± 0.017 | 1.023 ± 0.0058 | 1.05 ± 0.04 | 1.03 ± 0.021 | 1.006 ± 0.0069 | 1.02 ± 0.011
C=CS(=O)(=O)NC1CCN(C(=O)CNc2cc(I)c(Cl)cc2OC)CC1 [K-Ras(G12C) inhibitor 9] | 1.03 ± 0.01 | 1.07 ± 0.029 | 1.04 | 1.04 ± 0.025 | 0.993 ± 0.0036 | 0.996 ± 0.014
CCN(CC)CCCCNc1ncc2cc(-c3cc(OC)cc(OC)c3)c(NC(=O)NC(C)(C)C)nc2n1 | 0.9727 ± 0.0096 | 0.813 ± 0.061 | 0.946 ± 0.02 | 0.829 ± 0.044 | 0.9957 ± 0.0045 | 0.98 ± 0.01
Cc1ccc([N+](=O)[O-])cc1S(=O)(=O)N(C)/N=C/c1cnc2ccc(Br)cn12 | 0.025 ± 0.0023 | 0.0304 ± 0.0032 | 0.0674 ± 0.0086 | 0.0802 ± 0.022 | 0.0104 ± 0.005 | 0.00623 ± 0.0011
COc1cc(-c2ccc(=O)[nH]n2)ccc1OC(F)F [Zardaverine] | 1.01 ± 0.01 | 1.03 ± 0.025 | 1.04 ± 0.055 | 1.04 ± 0.011 | 1.01 ± 0.01 | 1.017 ± 0.0058
CC[N+](CC)(CC)CC(=O)Nc1c(C)cccc1C [Lidocaine N-ethyl bromide] | 1.002 ± 0.0067 | 0.994 ± 0.023 | 1 ± 0.012 | 1.01 ± 0.062 | 1.003 ± 0.0061 | 1.01 ± 0.01
O=c1[nH]c(=O)n([C@H]2C[C@H](O)[C@@H](CO)O2)cc1Br [5-Bromo-2'-deoxyuridine] | 1.01 ± 0.01 | 1.073 ± 0.0058 | 1.001 ± 0.009 | 1.05 ± 0.021 | 0.98 ± 0.011 | 1
COc1cc(OC)c(/C=C/S(=O)(=O)Cc2ccc(OC)c(NCC(=O)O)c2)c(OC)c1 | 0.307 ± 0.021 | 0.261 ± 0.026 | 0.572 ± 0.03 | 0.572 ± 0.051 | 0.0447 ± 0.0079 | 0.0341 ± 0.0062
Nc1ccc(CCNc2ncnc3c2ncn3C2OC(CO)C(O)C2O)cc1 (stereo unspecified) [N6-2-(4-Aminophenyl)ethyladenosine] | 0.9993 ± 0.0011 | 1.01 ± 0.016 | 0.9863 ± 0.0057 | 1 ± 0.026 | 0.992 ± 0.007 | 0.996 ± 0.016
COc1ccc(-c2ccc3c(N4CCOCC4)nc(N4C[C@@H](C)O[C@@H](C)C4)nc3n2)cc1CO | 0.567 ± 0.0085 | 0.5117 ± 0.0011 | 0.619 ± 0.021 | 0.615 ± 0.055 | 0.615 ± 0.017 | 0.564 ± 0.025
OCC1OC(n2cnc3c(NCCc4ccccc4)ncnc32)C(O)C1O (stereo unspecified) [N6-2-Phenylethyladenosine] | 1.006 ± 0.0069 | 0.9327 ± 0.0083 | 0.852 ± 0.27 | 1 ± 0.017 | 0.993 ± 0.0062 | 1 ± 0.017
OC[C@H]1O[C@@H](n2cnc3c(Nc4ccccc4)ncnc32)[C@H](O)[C@@H]1O [N6-Phenyladenosine] | 1 ± 0.014 | 1.01 ± 0.011 | 1.02 ± 0.022 | 1.013 ± 0.0058 | 1.01 ± 0.01 | 1.002 ± 0.0076

Structure (SMILES) | normalised cell viability [1] | normalised cell viability [2] | normalised cell viability [3] | normalised cell viability [4] | normalised cell viability [5] | normalised cell viability [6]
NCCNS(=O)(=O)c1cccc2cnccc12 [H-9 dihydrochloride] | 1 ± 0.017 | 1.017 ± 0.0058 | 1.01 ± 0.013 | 1.01 ± 0.018 | 1.01 ± 0.011 | 1.006 ± 0.0069
CC1=C(/C=C/C(C)=C/C=C/C(C)=C\C(=O)O)C(C)(C)CCC1 [13-cis-retinoic acid] | 0.981 ± 0.0072 | 0.988 ± 0.036 | 0.998 ± 0.013 | 0.97 ± 0.021 | 1.01 ± 0.01 | 0.999 ± 0.011
Nc1nc(OCc2ccccc2)c2nc[nH]c2n1 [O6-benzylguanine] | 0.989 ± 0.0095 | 0.943 ± 0.015 | 0.992 ± 0.014 | 0.92 ± 0.069 | 0.9727 ± 0.0032 | 0.9907 ± 0.0086
CC(C)(Sc1ccc(CCN(CCCCC2CCCCC2)C(=O)NC2CCCCC2)cc1)C(=O)O | 1.027 ± 0.0058 | 1.027 ± 0.0058 | 1.03 ± 0.01 | 1.03 ± 0.015 | 1.027 ± 0.0058 | 1.037 ± 0.0058
NC1C=CC=C(C(=O)O)C1 (stereo unspecified) [Gabaculine hydrochloride] | 0.974 ± 0.017 | 0.96 ± 0.017 | 0.9813 ± 0.0046 | 0.967 ± 0.0057 | 0.992 ± 0.016 | 0.9693 ± 0.0055
CSc1ccc2c(c1)N(CCC1CCCCN1C)c1ccccc1S2 (stereo unspecified) [Thioridazine hydrochloride] | 0.997 ± 0.015 | 0.896 ± 0.074 | 1.02 ± 0.025 | 1.043 ± 0.0058 | 0.997 ± 0.011 | 0.545 ± 0.24
CN(Cc1cnc2nc(N)nc(N)c2n1)c1ccc(C(=O)N[C@@H](CCC(=O)O)C(=O)O)cc1 [Methotrexate hydrate; Methotrexate] | 1.003 ± 0.0058 | 0.387 ± 0.02 | 1.01 ± 0.01 | 0.569 ± 0.041 | 0.994 ± 0.006 | 0.227 ± 0.02
CN(Cc1cnc2nc(N)nc(N)c2n1)c1ccc(C(=O)N[C@@H](CCC(=O)O)C(=O)O)cc1 [Methotrexate hydrate] | 0.467 ± 0.023 | 0.396 ± 0.016 | 0.709 ± 0.039 | 0.572 ± 0.057 | 0.277 ± 0.0078 | 0.232 ± 0.024
Nc1cc(F)ccc1NC(=O)/C=C/c1cnn(C/C=C/c2ccccc2)c1 | 0.978 ± 0.028 | 1.01 ± 0.01 | 0.969 ± 0.036 | 1.017 ± 0.0058 | 0.9837 ± 0.0015 | 0.875 ± 0.01
CCN1CCc2nc(N)oc2CC1 [B-HT 933 dihydrochloride] | 1.013 ± 0.0058 | 1.007 ± 0.0058 | 1.003 ± 0.0058 | 1.01 ± 0.015 | 0.9913 ± 0.0031 | 0.9947 ± 0.005
C[N+](C)(C)CCOC(=O)CCC(=O)OCC[N+](C)(C)C [Succinylcholine chloride] | 1.004 ± 0.0098 | 1.03 ± 0.02 | 0.893 ± 0.21 | 1.01 ± 0.011 | 1.013 ± 0.0058 | 1.01 ± 0.011
O=C(CCCCCCC(=O)Nc1ccc([C@H]2O[C@@H](CSc3nc(-c4ccccc4)c(-c4ccccc4)o3)C[C@@H](c3ccc(CO)cc3)O2)cc1)NO [Tubacin] | 0.978 ± 0.0076 | 0.977 ± 0.013 | 0.993 ± 0.017 | 0.981 ± 0.0066 | 0.9873 ± 0.0059 | 0.997 ± 0.013
CC(Cc1ccc(O)c(O)c1)(NN)C(=O)O (stereo not drawn) [S-(-)-Carbidopa] | 0.997 ± 0.013 | 1.01 ± 0.014 | 1.01 ± 0.013 | 1.01 ± 0.015 | 0.992 ± 0.0035 | 0.989 ± 0.004
CCCCCCCCCC(=O)NC(CN1CCOCC1)[C@H](O)c1ccccc1 (mixture of isomers) | 1.01 | 0.9997 ± 0.0096 | 1.02 ± 0.026 | 1.01 ± 0.024 | 1.01 | 0.997 ± 0.014
CN(C)c1ccc(O)c2c1C[C@H]1C[C@H]3[C@H](N(C)C)C(O)=C(C(N)=O)C(=O)[C@@]3(O)C(O)=C1C2=O [Minocycline hydrochloride] | 1.007 ± 0.0058 | 1.02 ± 0.025 | 1.003 ± 0.0061 | 1.05 ± 0.073 | 0.9947 ± 0.005 | 1 ± 0.014
